Measurements taken from the supplement of paper PMC10369915.
Some of the results follow. No stated cut-off is given here; in the data, active = 3.2 or more and inactive = the rest. Most of these values are background signal.

Experiments:
Assay in all cases: enrichment score (SH2-bound / input frequency) (ratio); bacterial display of known human phosphotyrosine sites (pTyr-Var adds point mutants) read by sequencing; higher = stronger binding; tyrosines were phosphorylated by kinases first
Details in all cases: peptide library: pTyr-Var
SHP2 C-SH2 domain E139D = molecular target: SHP2 C-SH2 domain E139D
[1] = molecular target: SHP2 C-SH2 domain wild-type
SHP2 N-SH2 domain L43F = molecular target: SHP2 N-SH2 domain L43F
SHP2 N-SH2 domain T42A = molecular target: SHP2 N-SH2 domain T42A
SHP2 N-SH2 domain T52S = molecular target: SHP2 N-SH2 domain T52S
[2] = molecular target: SHP2 N-SH2 domain wild-type
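Further: displayed peptides selected on beads carrying the immobilized SH2 domain, with library peptides lacking any tyrosine serving as negative controls.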

Binder | enrichment score (SHP2 C-SH2 domain E139D) | enrichment score [1] | enrichment score (SHP2 N-SH2 domain L43F) | enrichment score (SHP2 N-SH2 domain T42A) | enrichment score (SHP2 N-SH2 domain T52S) | enrichment score [2]
ATPSQYMTFLH [DYNC2H1_Y2872_R2871Q] | inactive: 1.01 | inactive: 1.32 | inactive: 1.1 | inactive: 1.21 | inactive: 0.938 | inactive: 0.952
STEEQYRIRQV [EFHC1_Y115] | inactive: 0.794 | inactive: 0.576 | inactive: 0.737 | inactive: 0.577 | inactive: 0.711 | inactive: 0.524
LGQRIYQYIQS [DYRK1B_Y271] | inactive: 1.48 | inactive: 1.73 | inactive: 2.06 | inactive: 2.49 | inactive: 2.07 | inactive: 1.28
ISTAGYSIPEL [EDAR_Y406] | inactive: 0.854 | inactive: 1.1 | inactive: 1.09 | inactive: 1.43 | inactive: 0.978 | inactive: 0.915
ATPSRYMTFLH [DYNC2H1_Y2872] | inactive: 1.12 | inactive: 1.97 | inactive: 0.88 | inactive: 1.61 | inactive: 0.844 | inactive: 0.993
QRIYQYIRSRF [DYRK1B_Y273_Q275R] | inactive: 0.242 | inactive: 0.276 | inactive: 0.262 | inactive: 0.337 | inactive: 0.229 | inactive: 0.484
NPSYNYEIVNR [DYNC1H1_Y3379] | inactive: 0.632 | inactive: 0.751 | inactive: 0.652 | inactive: 0.597 | inactive: 0.734 | inactive: 0.725
GANSEYIIAEK [ECHS1_Y35_F33S] | inactive: 0.646 | inactive: 0.538 | inactive: 0.518 | inactive: 0.573 | inactive: 0.574 | inactive: 0.621
KPVDTYFDSTR [DYNC2H1_Y2230_M2227V_YF] | inactive: 0.735 | inactive: 0.839 | inactive: 0.837 | inactive: 0.558 | inactive: 0.937 | inactive: 0.981
INITIYGKTFH [EFHC1_Y177_R182H] | inactive: 1.39 | inactive: 1.9 | inactive: 1.58 | inactive: 1.25 | inactive: 1.53 | inactive: 1.77
INITIYGKTFC [EFHC1_Y177_R182C] | inactive: 1.38 | inactive: 1.94 | inactive: 1.69 | inactive: 1.38 | inactive: 1.43 | inactive: 1.9
AAVNGYVFGGG [ECHS1_Y137_A138V] | inactive: 0.824 | inactive: 0.742 | inactive: 0.764 | inactive: 0.736 | inactive: 0.742 | inactive: 0.733
PMDTYYDSTRG [DYNC2H1_Y2231] | inactive: 0.673 | inactive: 0.616 | inactive: 0.834 | inactive: 0.686 | inactive: 0.764 | inactive: 0.858
RNESFYDTFST [EFCAB3_Y372] | inactive: 0.783 | inactive: 0.678 | inactive: 0.981 | inactive: 0.622 | inactive: 0.961 | inactive: 0.686
QRIYQYIQSRF [DYRK1B_Y273] | inactive: 2.23 | inactive: 2.03 | inactive: 2.02 | active: 3.7 | inactive: 1.85 | inactive: 1.62
VFPATYHPDHW [EFCAB12_Y544_YF] | inactive: 1.14 | inactive: 1.04 | inactive: 1.16 | inactive: 0.804 | inactive: 1.21 | inactive: 1.07
MMVGAYSSLEG [ECPAS_Y470_T472S] | inactive: 1.05 | inactive: 0.928 | inactive: 0.831 | inactive: 1.31 | inactive: 0.978 | inactive: 0.974
INVTIYGKTFR [EFHC1_Y177_I174V] | inactive: 1.37 | inactive: 1.34 | inactive: 1.33 | inactive: 1.3 | inactive: 0.912 | inactive: 1.65
PLQDVYKIGGI [EEF1A2_Y254] | inactive: 1.05 | inactive: 0.806 | inactive: 0.958 | inactive: 1.04 | inactive: 1.05 | inactive: 0.963
